Measurements reported in PMC7483518, “Destabilizing single chain major histocompatibility complex class I protein for repurposed enterokinase proteolysis” (Scientific Reports, 2020).

Target: T1, photo-labile unchained HLA-A*11:01 MHC-I protein (Homo sapiens, UniProt P04439, A114D/D185E/E176A/F33Y/L180Q/S129P/T187R)
T1 construct: made in house
Test: Photo-labile unchained MHC-I protein treated with UV, peptides and enterokinase (SDS-PAGE band volume)
Assay type: biochemical
Conditions: Fig_S1a, UV 37C + Ek with peptide, SDS-PAGE band 1

FGSLLDYVREHK [CS1048]
Adj. Volume (Int) (replicate 1 (lanes 1-14)): 15950844 Int | Adj. Volume (Int) (replicate 2 (lanes 15-28)): 9994572 Int

GSLLDYVREHK [CS1037]
Adj. Volume (Int) (replicate 1 (lanes 1-14)): 10050768 Int | Adj. Volume (Int) (replicate 2 (lanes 15-28)): 8984178 Int

MQLMPFGCLLDY [TM1050]
Adj. Volume (Int) (replicate 1 (lanes 1-14)): 5645052 Int | Adj. Volume (Int) (replicate 2 (lanes 15-28)): 4409055 Int

QLMPFGSLLDY [CS1032]
Adj. Volume (Int) (replicate 1 (lanes 1-14)): 13122963 Int | Adj. Volume (Int) (replicate 2 (lanes 15-28)): 9307746 Int

SLLDYVREH [CS1017]
Adj. Volume (Int) (replicate 1 (lanes 1-14)): 11874744 Int | Adj. Volume (Int) (replicate 2 (lanes 15-28)): 8988147 Int

SLLDYVREHK [CS1027]
Adj. Volume (Int) (replicate 1 (lanes 1-14)): 11631879 Int | Adj. Volume (Int) (replicate 2 (lanes 15-28)): 10519299 Int

SLLDYVREHKDN [CS1050]
Adj. Volume (Int) (replicate 1 (lanes 1-14)): 12009312 Int | Adj. Volume (Int) (replicate 2 (lanes 15-28)): 12015738 Int

VAIKTSPKANK [EX1018, EGFR exon 19 deletion-derived peptide]
Adj. Volume (Int) (replicate 1 (lanes 1-14)): 9646371 Int | Adj. Volume (Int) (replicate 2 (lanes 15-28)): 6436647 Int
